Assay: soluble fraction after stress (log2 fold change); higher = more stays soluble; pooled small domains, quantitative proteomics
Details: stress: 75 degC
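Also: 20 min heating vs room temperature control held 20 min.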

Sequence | soluble fraction (log2)
HMRRLQTVVFQKGLATTIRQARQLINHGHIFVDGHKVTVPGYLVLREEEGSVAYNPASPFTDENHPM | -2.16
HMTEEDLIEAFKIFDKDGNGVISAQELRHVMTTLGERLTEEEADEMIREADIDGDGYINYHEFVRIMM | -0.228
